In the antibiotic and cytotoxicity screens of Wong et al. (2023):
Some of the results follow.

Key:
HSkMC = human skeletal muscle cells; assay: cytotoxicity call (relative viability < 0.9); details: 10 µM
HepG2 = assay: cytotoxicity call (relative viability < 0.9); details: 10 µM
S. aureus RN4220 = assay: growth inhibition call (relative growth <= 0.2); details: 50 µM

SMILES | cytotoxicity call (HSkMC) | cytotoxicity call (HepG2) | growth inhibition call (S. aureus RN4220)
COc1cc(C)c(C(=O)Oc2cc(C)c(C(=O)O)c(O)c2)c(O)c1 | inactive | inactive | inactive
C[C@H](CO)N1C[C@H](C)[C@@H](CN(C)Cc2ccncc2)OCCCC[C@H](C)Oc2ccc(NC(=O)Nc3cccc4ccccc34)cc2C1=O | inactive | inactive | inactive
O/N=C/c1c(Cl)cccc1Cl | inactive | inactive | inactive
O=C1/C(=C/c2cccs2)CCC/C1=C\c1cccs1 | inactive | inactive | inactive
COc1cccn(CC(=O)NN)c1=O | inactive | inactive | inactive
CN(C)CC#Cc1ccc([C@H]2[C@@H](CO)N3CCCCN(C(=O)CN(C)C)C[C@@H]23)cc1 | inactive | inactive | inactive
C[C@@H]1CN([C@H](C)CO)C(=O)c2ccccc2-c2ccccc2CO[C@@H]1CN(C)Cc1ccc(Oc2ccccc2)cc1 | inactive | inactive | inactive
CN(C)Cc1cn(CC[C@@H]2CC[C@@H](NS(=O)(=O)c3ccccc3)[C@H](CO)O2)nn1 | inactive | inactive | inactive
N#C/C(=C\c1ccc(C(F)(F)F)cc1)c1c[nH]c2ccccc12 | inactive | inactive | inactive
C[C@H](CO)N1C[C@H](C)[C@H](CN(C)CC2CCCCC2)OCCCC[C@H](C)Oc2ccc(NS(=O)(=O)c3ccc(F)cc3)cc2C1=O | inactive | active | inactive
C=C(C)Cn1c(N2CCN(CCO)CC2)nc2c1c(=O)n(C)c(=O)n2C | inactive | inactive | inactive
C[C@@H]1CCCCO[C@H](CN(C)Cc2ccc(C(F)(F)F)cc2)[C@@H](C)CN([C@@H](C)CO)C(=O)c2cc(NC(=O)Nc3ccc4c(c3)OCO4)ccc2O1 | active | active | inactive
C[C@@H]1CN([C@@H](C)CO)C(=O)c2cc(NS(=O)(=O)c3ccc(F)cc3)ccc2O[C@@H](C)CCCCO[C@@H]1CN(C)Cc1ccc(C(F)(F)F)cc1 | inactive | inactive | inactive
C[C@H](CO)N1C[C@H](C)[C@H](CN(C)C(=O)c2ccncc2)OCCCC[C@H](C)Oc2ccc(NS(C)(=O)=O)cc2C1=O | inactive | inactive | inactive
C[C@H](CO)N1C[C@H](C)[C@H](CN(C)C(=O)Nc2cccc3ccccc23)Oc2ccc(NS(=O)(=O)c3ccc(F)cc3)cc2C1=O | inactive | inactive | inactive
C[C@@H]1CCCCO[C@H](CN(C)Cc2ccc3c(c2)OCO3)[C@H](C)CN([C@H](C)CO)C(=O)c2cc(NC(=O)Cc3ccccc3)ccc2O1 | inactive | inactive | inactive
C[C@H]1CN([C@@H](C)CO)C(=O)Cc2cc(NC(=O)CCCN(C)C)ccc2O[C@H]1CN(C)Cc1ccc(Oc2ccccc2)cc1 | inactive | inactive | inactive
O=C(O)[C@H](O)[C@H](O)[C@H](O)[C@H](O)CO | inactive | inactive | inactive
C[C@@H]1CN([C@@H](C)CO)C(=O)c2cc(Br)cnc2O[C@@H]1CN(C)S(C)(=O)=O | inactive | inactive | inactive

SMILES | cytotoxicity call (HSkMC) | cytotoxicity call (HepG2) | growth inhibition call (S. aureus RN4220)
O=C(C[C@H]1CC[C@H]2[C@@H](COC[C@H](O)CN2Cc2ccccc2F)O1)N[C@@H]1CCN(Cc2ccccc2)C1 | inactive | inactive | inactive
Cc1noc(C)c1S(=O)(=O)N(C)C[C@@H]1OCCCC[C@H](C)Oc2ccc(N(C)C)cc2C(=O)N([C@H](C)CO)C[C@@H]1C | inactive | inactive | inactive
[N-]=[N+]=NCc1ccccc1C[C@]1(C(=O)NC[C@@H](O)CO)N=C(c2ccc(OCCCO)cc2)O[C@H]1c1ccccc1 | inactive | inactive | inactive
C[C@H](CO)N1C[C@H](C)[C@@H](CN(C)C(=O)c2ccccc2)OCCCC[C@H](C)Oc2ccc(NC(=O)Cc3ccccc3)cc2C1=O | inactive | inactive | inactive
Nc1c(O)cccc1C(=O)O | inactive | inactive | inactive
C[C@@H]1CCCCO[C@H](CN(C)S(=O)(=O)c2ccc(Cl)cc2)[C@H](C)CN([C@H](C)CO)C(=O)c2cc(NS(=O)(=O)c3ccc(F)cc3)ccc2O1 | inactive | inactive | inactive
COc1ccc(S(=O)(=O)Nc2ccc3c(c2)CC(=O)N([C@@H](C)CO)C[C@@H](C)[C@H](CN(C)C(=O)Nc2c(C)noc2C)O3)cc1 | inactive | inactive | inactive
C[C@@H]1CN([C@@H](C)CO)C(=O)c2cccc(NC(=O)c3cnccn3)c2O[C@@H]1CN(C)S(=O)(=O)c1cn(C)cn1 | inactive | inactive | inactive
O=c1c(O)c(-c2ccc(O)c(O)c2)oc2cc(O)ccc12 | inactive | active | inactive
COCC(=O)N1C[C@H](C)[C@@H](OC)CN(C)C(=O)c2cc(NC(=O)c3ccc(F)cc3)ccc2OC[C@@H]1C | inactive | inactive | inactive
COc1ccc(S(=O)(=O)Nc2ccc3c(c2)CC(=O)N([C@@H](C)CO)C[C@@H](C)[C@@H](CN(C)CC2CC2)O3)cc1 | inactive | inactive | inactive
C[C@H]1CN([C@@H](C)CO)C(=O)Cc2cc(NC(=O)CCCCCC(=O)Nc3ccccc3N)ccc2O[C@H]1CN(C)Cc1ccc(Cl)c(Cl)c1 | inactive | inactive | inactive
COc1cccc(-c2ccc3c(c2)O[C@H](CN(C)C(=O)C2CCOCC2)[C@H](C)CN([C@H](C)CO)S3(=O)=O)c1 | inactive | inactive | inactive
CO[C@H]1CN(C)C(=O)c2cc(NS(=O)(=O)c3ccccc3)ccc2OC[C@@H](C)N(C(=O)NC(C)C)C[C@H]1C | inactive | inactive | inactive
COc1ccc(S(=O)(=O)Nc2ccc3c(c2)C(=O)N([C@@H](C)CO)C[C@H](C)[C@H](CN(C)C(=O)C2CCCCC2)OCCCC[C@H](C)O3)cc1 | inactive | inactive | inactive
O=C(C[C@@H]1CC[C@H]2[C@@H](COC[C@H](O)CN2Cc2cc(F)ccc2F)O1)N[C@H]1CCN(Cc2ccccc2)C1 | inactive | inactive | inactive
C[C@H]1CN([C@@H](C)CO)C(=O)Cc2cc(NS(=O)(=O)c3cccs3)ccc2O[C@H]1CN(C)S(=O)(=O)c1ccc(F)cc1 | inactive | inactive | inactive
C[C@H]1CCCCO[C@H](CN(C)Cc2ccccc2)[C@@H](C)CN([C@@H](C)CO)C(=O)c2cc(NS(=O)(=O)c3ccccc3)ccc2O1 | inactive | inactive | inactive
COc1ccc(NC(=O)Nc2ccc3c(c2)CC(=O)N([C@@H](C)CO)C[C@@H](C)[C@@H](CN(C)CC2CCCCC2)O3)cc1 | inactive | inactive | inactive

SMILES | cytotoxicity call (HSkMC) | cytotoxicity call (HepG2) | growth inhibition call (S. aureus RN4220)
C[C@@H]1CN([C@@H](C)CO)C(=O)Cc2cc(NC(=O)Cn3cnnn3)ccc2O[C@H]1CN(C)C(=O)NC1CCCCC1 | inactive | inactive | inactive
CC(C)C#Cc1ccc2c(c1)O[C@@H](CN(C)C(=O)c1cccc(F)c1)[C@@H](C)CN([C@@H](C)CO)S2(=O)=O | inactive | inactive | inactive
C[C@@H]1CN([C@@H](C)CO)C(=O)c2cc(NS(=O)(=O)c3ccc(F)cc3)ccc2O[C@@H](C)CCCCO[C@H]1CN(C)C(=O)c1ccccc1 | inactive | inactive | inactive
C[C@H]1CN([C@@H](C)CO)C(=O)c2cccc(NC(=O)Nc3ccc(C(F)(F)F)cc3)c2O[C@@H]1CN(C)C(=O)NC1CCCCC1 | active | active | inactive
C[C@H](O)C#Cc1ccc2c(c1)O[C@@H](CN(C)C(=O)CN(C)C)[C@@H](C)CN([C@H](C)CO)S2(=O)=O | inactive | inactive | inactive
C[C@@H]1CCCCO[C@H](CN(C)Cc2ccc(C(=O)O)cc2)[C@H](C)CN([C@@H](C)CO)C(=O)c2cc(NC(=O)Nc3ccccc3)ccc2O1 | inactive | inactive | inactive
C[C@H](CO)N1C[C@H](C)[C@H](CN(C)C(=O)Nc2ccc(C(F)(F)F)cc2)Oc2c(NC(=O)Nc3ccc4c(c3)OCO4)cccc2C1=O | inactive | inactive | inactive
CN1CCN(C(=O)C[C@@H]2CC[C@@H]3[C@H](COc4ccc(NC(=O)c5cscn5)cc4C(=O)N3C)O2)CC1 | inactive | inactive | inactive
C[C@@H]1CN([C@H](C)CO)C(=O)c2cccc(NC(=O)c3cnccn3)c2O[C@H]1CN(C)CC1CCCCC1 | inactive | inactive | inactive
CCOc1ccc(C(=O)Nc2ccc(S(=O)(=O)N3CCCC[C@@H]3c3cccnc3)cc2)cc1OCC | inactive | inactive | inactive
O=C(C[C@@H]1CC[C@@H]2[C@H](COC[C@@H](O)CN2C(=O)Nc2cc(Cl)cc(Cl)c2)O1)N1CCOCC1 | inactive | inactive | active
C[C@H]1CN([C@@H](C)CO)C(=O)c2cccc(NC(=O)Nc3cccc4ccccc34)c2O[C@@H]1CN(C)C(=O)Nc1ccc(C(F)(F)F)cc1 | active | active | inactive
COc1ccc(NC(=O)N(C)C[C@@H]2OCc3ccccc3-c3c(n(C)c4ccccc34)C(=O)N([C@H](C)CO)C[C@@H]2C)cc1 | inactive | inactive | inactive
CCNC(=O)C[C@@H]1C=C[C@@H](NC(=O)C2CC2)[C@H](CO)O1 | inactive | inactive | inactive
NCC[C@@H]1CC[C@@H](NC(=O)C2CCC2)[C@H](CO)O1 | inactive | inactive | inactive
COc1ccc(NC(=O)N(C)C[C@@H]2Oc3c(NC(=O)Nc4ccc(C(F)(F)F)cc4)cccc3C(=O)N([C@H](C)CO)C[C@@H]2C)cc1 | inactive | inactive | inactive
Cc1ccc(S(=O)(=O)Nc2ccc3c(c2)C(=O)N([C@@H](C)CO)C[C@H](C)[C@H](CN(C)C(=O)Nc2ccccc2)OCCCC[C@H](C)O3)cc1 | inactive | inactive | inactive
C[C@H](CO)N1C[C@H](C)[C@H](CN(C)C(=O)Nc2ccc3c(c2)OCO3)Oc2c(NC(=O)Nc3ccc(C(F)(F)F)cc3)cccc2C1=O | inactive | active | active
